# Results as given in the supplement of paper PMC8728848.
# This is one part of the list.
# B1: CBM13 2a (Mycobacterium tuberculosum), P64849 (protein)
# chain: DGPVQLKSRLGDVCLDAPSGSWFSPLVINPCNGTDFQRWNLTDDRQVESVAFPGECVNIGNALWARLQPCVNWISQHWTVQPDGLVKSDLDACLTVLGGPDPGTWVSTRWCDPNAPDQQWDSVPLEHHHHHH
# Tests used:
# Test in all cases: glycan array binding signal (z-score within array); higher = stronger binding
# Conditions in all cases: glycan notation: IUPAC condensed, linker removed
# [1] = biological target: Gal(a1-3)Gal(b1-4)GlcNAc(b1-2)Man
# How it was run: (§1)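 Arrays were curated from the Consortium for Functional Glycomics database, 3228 in total, and kept only where the protein sequence was available. Binding is expressed as a within-array Z-score. This score was averaged across arrays of the same protein sequence at different concentrations or buffers and across linkers, and negative values can be read as non-binding.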
# [2] = biological target: Gal(a1-3)Gal(b1-4)GlcNAc(b1-2)Man(a1-3)[Gal(a1-3)Gal(b1-4)GlcNAc(b1-2)Man(a1-6)]Man(b1-4)GlcNAc(b1-4)GlcNAc
# How it was run: as §1
# [3] = biological target: Gal(a1-3)Gal(b1-4)GlcNAc(b1-3)GalNAc
# How it was run: as §1
# [4] = biological target: Gal(a1-3)Gal(b1-4)GlcNAc(b1-6)GalNAc
# How it was run: as §1
# [5] = biological target: Gal(a1-3)Gal(b1-4)[Fuc(a1-3)]GlcNAc
# How it was run: as §1
# [6] = biological target: Gal(a1-3)Gal(b1-4)[Fuc(a1-3)]GlcNAc(b1-2)Man(a1-3)[Gal(a1-3)Gal(b1-4)[Fuc(a1-3)]GlcNAc(b1-2)Man(a1-6)]Man(b1-4)GlcNAc(b1-4)GlcNAc
# How it was run: as §1
# Gal(a1-3)GalNAc = biological target: Gal(a1-3)GalNAc
# How it was run: as §1
# [7] = biological target: Gal(a1-3)[Gal(a1-4)]Gal(b1-4)GlcNAc
# How it was run: as §1
# [8] = biological target: Gal(a1-4)Gal(b1-3)GlcNAc(b1-2)Man(a1-3)[Gal(a1-4)Gal(b1-3)GlcNAc(b1-2)Man(a1-6)]Man(b1-4)GlcNAc(b1-4)GlcNAc
# How it was run: as §1
# Gal(a1-4)Gal(b1-4)Glc = biological target: Gal(a1-4)Gal(b1-4)Glc
# How it was run: as §1
# Gal(a1-4)Gal(b1-4)GlcNAc = biological target: Gal(a1-4)Gal(b1-4)GlcNAc
# How it was run: as §1
# [9] = biological target: Gal(a1-4)Gal(b1-4)GlcNAc(b1-2)Man(a1-3)[Gal(a1-4)Gal(b1-4)GlcNAc(b1-2)Man(a1-6)]Man(b1-4)GlcNAc(b1-4)GlcNAc
# How it was run: as §1
# [10] = biological target: Gal(a1-4)Gal(b1-4)GlcNAc(b1-3)Gal(b1-4)Glc
# How it was run: as §1
# Gal(a1-4)GlcNAc = biological target: Gal(a1-4)GlcNAc
# How it was run: as §1
# Gal(a1-6)Glc = biological target: Gal(a1-6)Glc
# How it was run: as §1
# Gal(b1-2)Gal = biological target: Gal(b1-2)Gal
# How it was run: as §1
# Gal(b1-3)Gal = biological target: Gal(b1-3)Gal
# How it was run: as §1
# Gal(b1-3)Gal(b1-4)GlcNAc = biological target: Gal(b1-3)Gal(b1-4)GlcNAc
# How it was run: as §1
# Gal(b1-3)GalNAc = biological target: Gal(b1-3)GalNAc
# How it was run: as §1
# [11] = biological target: Gal(b1-3)GalNAc(a1-3)[Fuc(a1-2)]Gal(b1-4)Glc
# How it was run: as §1
# [12] = biological target: Gal(b1-3)GalNAc(a1-3)[Fuc(a1-2)]Gal(b1-4)GlcNAc
# How it was run: as §1
# Gal(b1-3)GalNAc(b1-3)Gal = biological target: Gal(b1-3)GalNAc(b1-3)Gal
# How it was run: as §1
# [13] = biological target: Gal(b1-3)GalNAc(b1-3)Gal(a1-4)Gal(b1-4)Glc
# How it was run: as §1
# [14] = biological target: Gal(b1-3)GalNAc(b1-4)Gal(b1-4)Glc
# How it was run: as §1
# [15] = biological target: Gal(b1-3)GalNAc(b1-4)[Neu5Ac(a2-3)]Gal(b1-4)Glc
# How it was run: as §1
# Gal(b1-3)GlcNAc = biological target: Gal(b1-3)GlcNAc
# How it was run: as §1
# [16] = biological target: Gal(b1-3)GlcNAc(a1-3)Gal(b1-4)GlcNAc
# How it was run: as §1
# [17] = biological target: Gal(b1-3)GlcNAc(a1-6)Gal(b1-4)GlcNAc
# How it was run: as §1
# Gal(b1-3)GlcNAc(b1-2)Man = biological target: Gal(b1-3)GlcNAc(b1-2)Man
# How it was run: as §1
# [18] = biological target: Gal(b1-3)GlcNAc(b1-2)Man(a1-3)[Gal(b1-3)GlcNAc(b1-2)Man(a1-6)]Man(b1-4)GlcNAc(b1-4)GlcNAc
# How it was run: as §1
# [19] = biological target: Gal(b1-3)GlcNAc(b1-2)Man(a1-3)[Gal(b1-3)GlcNAc(b1-2)Man(a1-6)]Man(b1-4)GlcNAc(b1-4)[Fuc(a1-6)]GlcNAc
# How it was run: as §1
# [20] = biological target: Gal(b1-3)GlcNAc(b1-2)Man(a1-3)[GlcNAc(b1-4)][Gal(b1-3)GlcNAc(b1-2)Man(a1-6)]Man(b1-4)GlcNAc(b1-4)GlcNAc
# How it was run: as §1
# [21] = biological target: Gal(b1-3)GlcNAc(b1-2)[Gal(b1-3)GlcNAc(b1-6)]Man(a1-6)[Gal(b1-3)GlcNAc(b1-2)Man(a1-3)]Man(b1-4)GlcNAc(b1-4)GlcNAc
# How it was run: as §1
# [22] = biological target: Gal(b1-3)GlcNAc(b1-3)Gal(b1-3)GlcNAc
# How it was run: as §1
# [23] = biological target: Gal(b1-3)GlcNAc(b1-3)Gal(b1-4)Glc
# How it was run: as §1
# [24] = biological target: Gal(b1-3)GlcNAc(b1-3)Gal(b1-4)GlcNAc
# How it was run: as §1
# [25] = biological target: Gal(b1-3)GlcNAc(b1-3)Gal(b1-4)GlcNAc(b1-2)Man(a1-3)[Gal(b1-3)GlcNAc(b1-3)Gal(b1-4)GlcNAc(b1-2)Man(a1-6)]Man(b1-4)GlcNAc(b1-4)GlcNAc
# How it was run: as §1
# [26] = biological target: Gal(b1-3)GlcNAc(b1-3)Gal(b1-4)GlcNAc(b1-2)[Gal(b1-3)GlcNAc(b1-3)Gal(b1-4)GlcNAc(b1-6)]Man(a1-6)[Gal(b1-3)GlcNAc(b1-3)Gal(b1-4)GlcNAc(b1-2)Man(a1-3)]Man(b1-4)GlcNAc(b1-4)[Fuc(a1-6)]GlcNAc
# How it was run: as §1
# [27] = biological target: Gal(b1-3)GlcNAc(b1-3)Gal(b1-4)GlcNAc(b1-3)Gal(b1-4)GlcNAc(b1-2)[Gal(b1-3)GlcNAc(b1-3)Gal(b1-4)GlcNAc(b1-3)Gal(b1-4)GlcNAc(b1-6)]Man(a1-6)[Gal(b1-3)GlcNAc(b1-3)Gal(b1-4)GlcNAc(b1-3)Gal(b1-4)GlcNAc(b1-2)Man(a1-3)]Man(b1-4)GlcNAc(b1-4)[Fuc(a1-6)]GlcNAc
# How it was run: as §1
# [28] = biological target: Gal(b1-3)GlcNAc(b1-3)Gal(b1-4)GlcNAc(b1-6)[Gal(b1-3)GlcNAc(b1-3)]Gal(b1-4)Glc
# How it was run: as §1
# [29] = biological target: Gal(b1-3)GlcNAc(b1-3)Gal(b1-4)[Fuc(a1-3)]GlcNAc(b1-6)[Gal(b1-3)GlcNAc(b1-3)]Gal(b1-4)Glc
# How it was run: as §1
# [30] = biological target: Gal(b1-3)GlcNAc(b1-3)GalNAc
# How it was run: as §1
# [31] = biological target: Gal(b1-3)GlcNAc(b1-6)Gal(b1-4)GlcNAc
# How it was run: as §1
# [32] = biological target: Gal(b1-3)GlcNAc(b1-6)GalNAc
# How it was run: as §1
# [33] = biological target: Gal(b1-3)GlcNAc(b1-6)[Gal(b1-3)]GalNAc
# How it was run: as §1
binder,measurement,setting,value
B1,glycan array binding signal (z-score),[1],-0.299
same,glycan array binding signal (z-score),[2],-0.178
same,glycan array binding signal (z-score),[3],-0.373
same,glycan array binding signal (z-score),[4],-0.186
same,glycan array binding signal (z-score),[5],-0.264
same,glycan array binding signal (z-score),[6],-0.199
same,glycan array binding signal (z-score),Gal(a1-3)GalNAc,0.087
same,glycan array binding signal (z-score),[7],-0.207
same,glycan array binding signal (z-score),[8],-0.14
same,glycan array binding signal (z-score),Gal(a1-4)Gal(b1-4)Glc,-0.146
same,glycan array binding signal (z-score),Gal(a1-4)Gal(b1-4)GlcNAc,-0.323
same,glycan array binding signal (z-score),[9],-0.29
same,glycan array binding signal (z-score),[10],-0.267
same,glycan array binding signal (z-score),Gal(a1-4)GlcNAc,-0.266
same,glycan array binding signal (z-score),Gal(a1-6)Glc,-0.063
same,glycan array binding signal (z-score),Gal(b1-2)Gal,-0.217
same,glycan array binding signal (z-score),Gal(b1-3)Gal,-0.285
same,glycan array binding signal (z-score),Gal(b1-3)Gal(b1-4)GlcNAc,-0.121
same,glycan array binding signal (z-score),Gal(b1-3)GalNAc,-0.17
same,glycan array binding signal (z-score),[11],-0.4
same,glycan array binding signal (z-score),[12],-0.225
same,glycan array binding signal (z-score),Gal(b1-3)GalNAc(b1-3)Gal,-0.341
same,glycan array binding signal (z-score),[13],-0.225
same,glycan array binding signal (z-score),[14],-0.32
same,glycan array binding signal (z-score),[15],-0.205
same,glycan array binding signal (z-score),Gal(b1-3)GlcNAc,-0.26
same,glycan array binding signal (z-score),[16],-0.084
same,glycan array binding signal (z-score),[17],-0.362
same,glycan array binding signal (z-score),Gal(b1-3)GlcNAc(b1-2)Man,-0.214
same,glycan array binding signal (z-score),[18],-0.2
same,glycan array binding signal (z-score),[19],-0.131
same,glycan array binding signal (z-score),[20],-0.203
same,glycan array binding signal (z-score),[21],-0.242
same,glycan array binding signal (z-score),[22],-0.241
same,glycan array binding signal (z-score),[23],-0.321
same,glycan array binding signal (z-score),[24],-0.288
same,glycan array binding signal (z-score),[25],-0.195
same,glycan array binding signal (z-score),[26],-0.012
same,glycan array binding signal (z-score),[27],-0.046
same,glycan array binding signal (z-score),[28],-0.263
same,glycan array binding signal (z-score),[29],-0.165
same,glycan array binding signal (z-score),[30],-0.15
same,glycan array binding signal (z-score),[31],-0.345
same,glycan array binding signal (z-score),[32],-0.098
same,glycan array binding signal (z-score),[33],-0.021
